# Reference: PubChem BioAssay AID2147 (National Center for Advancing Translational Sciences (NCATS), 2009)
# Among all 230,000 compounds or so, about 3,600 (1.6%) were called active. This list was built around the results that the source calls inconclusive (neither active nor inactive); the mix of calls is not that of the screen. Calls come from the whole dose curve; as a rule, active = well fitted inhibition curve with a large enough effect (not every such curve was filed as active); inconclusive = small, poorly fitted or top-dose-only effect, or another doubt; inactive = no such curve, though single readings can be large or run the other way. Potencies of inconclusive entries are doubtful fits and often do not repeat.
# Molecular target: Lysine-specific demethylase 4E (Homo sapiens) (UniProt B2RXH2)
# UniProt B2RXH2, sequence (B2RXH2 whole entry, looked up, the tested form may be a part): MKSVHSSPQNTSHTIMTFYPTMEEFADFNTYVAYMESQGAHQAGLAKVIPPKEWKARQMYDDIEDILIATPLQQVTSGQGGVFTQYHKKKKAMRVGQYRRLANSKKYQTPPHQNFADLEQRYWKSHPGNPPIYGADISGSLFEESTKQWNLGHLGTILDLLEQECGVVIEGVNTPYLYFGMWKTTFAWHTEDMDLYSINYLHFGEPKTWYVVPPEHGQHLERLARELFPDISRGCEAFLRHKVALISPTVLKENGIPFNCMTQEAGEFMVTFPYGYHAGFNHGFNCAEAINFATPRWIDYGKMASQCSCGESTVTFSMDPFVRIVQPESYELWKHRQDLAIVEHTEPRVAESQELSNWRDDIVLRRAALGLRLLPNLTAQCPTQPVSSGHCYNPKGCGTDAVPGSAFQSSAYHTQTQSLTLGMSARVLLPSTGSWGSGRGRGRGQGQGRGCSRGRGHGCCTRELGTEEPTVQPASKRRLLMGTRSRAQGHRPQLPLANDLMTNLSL
# Assay: qHTS Assay for Inhibitors of Human Jumonji Domain Containing 2E (JMJD2E)
# Conditions: JMJD2E catalytic domain, FDH-coupled NADH fluorescence (FDH is formaldehyde dehydrogenase); series mostly up to 57.1 µM
# Note: nearly all actives have a fitted effect of over 50% in size.
# Potency is the fitted concentration of half-maximal effect; tags give direction and shape of the fitted curve.
row,SMILES,Potency
1,Cc1nc(C)c(C(=O)N/N=C/c2c[nH]c3ccccc23)s1,"inconclusive: 35.5 µM [inhibitor, single point]"
2,O=C(O)C1CSC(c2ccc3c(c2)OCO3)N1 (centres undefined),"inconclusive: 25.1 µM [inhibitor, single point]"
3,CCOc1nc(-c2ccccc2)ccc1-c1noc(COC)n1,"inconclusive: 35.5 µM [inhibitor, partial curve]"
4,O=C(NCc1nc2ccccc2[nH]1)c1cc2ccccc2oc1=O,"inconclusive: 28.2 µM [inhibitor, single point]"
5,O=c1[nH]c(N/N=C/c2ccccc2)nc2ccccc12,"inconclusive: 31.6 µM [inhibitor, partial curve]"
6,CCN(CC)c1ccc(C(=O)OCC(=O)Nc2ccccc2-c2ccccc2)cc1,"inconclusive: 35.5 µM [inhibitor, single point]"
7,N#Cc1c(NC(=O)c2ccccc2)sc2c1CCCCC2,"inconclusive: 7.94 µM [inhibitor, partial curve]"
8,COC(=O)\C(C(C)=O)=C(/C=C/C=C/C=C/N(C)C)N(C)C,active: 22.4 µM
9,Cn1c(-c2ccc3ccccc3n2)[n+](C)c2ccccc21,"inconclusive: 12.6 µM [inhibitor, partial curve]"
10,CCOC(=O)c1c(NC(=O)C2=C(C)NC(=S)NC2c2ccc(F)cc2F)sc(C)c1C (centres undefined),"inconclusive: 31.6 µM [inhibitor, partial curve]"
11,Cc1cccc(CC2SC(N)=NC2=O)c1 (centres undefined),inactive
12,COC(=O)c1ccccc1NC(=O)COC(=O)c1ccc(C)c(NC(=O)c2ccco2)c1,"inconclusive: 39.8 µM [inhibitor, single point]"
13,CNC(CC(=O)c1ccc([N+](=O)[O-])cc1)C(Cl)(Cl)Cl (centres undefined),"inconclusive: 25.1 µM [inhibitor, single point]"
14,COc1ccccc1NC(=O)N1CCN(c2ccccn2)CC1,"inconclusive: 28.2 µM [inhibitor, partial curve]"
15,CCn1cnc2cc(NCc3ccc(OC)cc3)ccc21,"inconclusive: 28.2 µM [inhibitor, single point]"
16,O=C(c1ccc(N2CCCC2=O)cc1)N1CCOCC1,inactive
17,C[C@@H](NC(=O)c1nc[nH]c1C(=O)N[C@@H](Cc1ccccc1)C(=O)OC(C)(C)C)c1ccccc1,inactive
18,CCCCN(CCCC)C(=O)c1sc2nc(N3CCOCC3)c3c(c2c1N)CCCC3,"inconclusive: 25.1 µM [inhibitor, partial curve]"
19,NC(=O)c1cc(-c2ccccc2)sc1NC(=O)Cc1ccc(S(=O)(=O)N2CCOCC2)s1,"inconclusive: 25.1 µM [inhibitor, single point]"
20,COCCNc1nc(C)nc2c1nc(-c1ccccc1)n2CCN1CCCC1,"inconclusive: 31.6 µM [inhibitor, partial curve]"
21,O=C(CN1C(=O)C2CC=CCC2C1=O)OCc1cc(=O)n2cc(Br)ccc2n1 (centres undefined),"inconclusive: 28.2 µM [inhibitor, single point]"
22,CCOc1ccccc1NC(=O)Nc1cnccn1,"inconclusive: 35.5 µM [inhibitor, single point]"
23,CCCc1ccc(OCC(=O)NNC(=S)NC(=O)c2ccco2)cc1,"inconclusive: 39.8 µM [inhibitor, single point]"

row,SMILES,Potency
1,CCCCN(C)C(=O)C1CCN(CCCc2ccccc2)CC1,"inconclusive: 39.8 µM [inhibitor, single point]"
2,Cc1nn(Cc2ccccc2)c(C)c1N,"inconclusive: 39.8 µM [inhibitor, single point]"
3,COc1ccc(-c2cc(C(=O)O)nc3ccc4ccccc4c23)cc1OC,"inconclusive: 35.5 µM [inhibitor, partial curve]"
4,Cc1ccccc1C(=O)Nc1ccc2c(C#N)c3nc4ccccc4nc3n2c1,"inconclusive: 15.8 µM [inhibitor, partial curve]"
5,N#Cc1c(N(CCO)CCO)nc(N)c2c(N)nc3c(c12)CC(=O)N3CC1CCCO1 (centres undefined),"inconclusive: 3.16 µM [inhibitor, full curve]"
6,C=CCn1c(-c2ccc(OC)cc2)nc2ccccc21,"inconclusive: 39.8 µM [inhibitor, single point]"
7,CC(=O)n1c(C=Nc2ccc(Cl)cc2)c(O)c2ccccc21,"inconclusive: 28.2 µM [inhibitor, partial curve]"
8,COc1ccc2oc(C(=O)OCC(=O)c3ccc4c(c3)OCCO4)c(C)c2c1,"inconclusive: 22.4 µM [inhibitor, partial curve]"
9,O=C(COc1ccc(Cl)cc1)Nc1cc(S(=O)(=O)N2CCCCC2)ccc1N1CCCCC1,inactive
10,Cc1cccc2cc(CNC3CCCC3)c(Cl)nc12,inactive
11,O=C(NNc1cc(Cl)cc(Cl)c1)C1CCC1,inactive
12,COc1cccc(C(c2c(C)[nH]n(-c3ccccc3)c2=O)c2c(C)[nH]n(-c3ccccc3)c2=O)c1OC,"inconclusive: 1.12 µM [inhibitor, full curve]"
13,Cc1ccc(-c2nn(-c3ccccc3)cc2CO)o1,"inconclusive: 28.2 µM [inhibitor, partial curve]"
14,Cc1cc(NC2CCCCC2)nc2ccccc12,"inconclusive: 28.2 µM [inhibitor, partial curve]"
15,COc1ccc2nc(NC(=O)CSc3nc(C)cc(=O)[nH]3)sc2c1,inactive
16,CC1CCCN(CCCNC(=O)CCn2nc(-c3ccccc3)ccc2=O)C1 (centres undefined),"inconclusive: 31.6 µM [inhibitor, partial curve]"
17,O=C(NC(=S)Nc1nc(-c2cccc([N+](=O)[O-])c2)cs1)c1cc(Cl)ccc1Cl,"inconclusive: 44.7 µM [inhibitor, partial curve, poor fit]"
18,CCOc1ccc2[nH]c(=O)c(CN(CCO)C(=O)c3ccc(F)cc3)cc2c1,"inconclusive: 31.6 µM [inhibitor, partial curve]"
19,Cc1ccc(-c2nnc3ccc(SCC(=O)NCc4ccco4)nn23)cc1,"inconclusive: 39.8 µM [inhibitor, single point]"
20,C/C(=N\NC(=O)C1CC1)c1ccc(NC(=O)c2ccc(Br)o2)cc1,"inconclusive: 28.2 µM [inhibitor, partial curve]"
21,CCCn1nc2cc(C(=O)NCc3ccc(OC(F)(F)F)cc3)ccc2c1OCC,"inconclusive: 31.6 µM [inhibitor, partial curve]"
22,COc1ccc2c(CSc3nnc(-c4cccnc4)n3-c3ccccc3F)cc(=O)oc2c1,"inconclusive: 28.2 µM [inhibitor, partial curve]"
23,COc1ccc(-n2nc3cc(C)c(NC(=O)C(C)C)cc3n2)cc1,"inconclusive: 2.82 µM [inhibitor, full curve]"

row,SMILES,Potency
1,O=C(O)c1ccc(Nc2nc(-c3cc4ccccc4oc3=O)cs2)cc1O,active: 20 µM
2,CCn1c(SCC(=O)N/N=C/C=C/c2ccco2)nnc1-c1ccccc1,"inconclusive: 31.6 µM [inhibitor, single point]"
3,Cc1cc[n+](CCC(=O)O)c2ccccc12,"inconclusive: 39.8 µM [inhibitor, single point]"
4,COC(=O)C(NC(=O)c1cccnc1Cl)C(C)C (centres undefined),inactive
5,CC(=O)OCCNc1nc(-c2ccccc2)nc2ccccc12,"inconclusive: 35.5 µM [inhibitor, single point]"
6,CCC12OC(=N)C(C#N)(C1C)C(C#N)(C#N)C(c1ccccc1)O2 (centres undefined),"inconclusive: 31.6 µM [inhibitor, partial curve]"
7,CCOc1ccc2nc(N=NC3=C(O)CC(C)(C)CC3=O)sc2c1,active: 22.4 µM
8,CCOC(=O)c1[nH]c2ccccc2c1NC(=O)C1CCCC1,"inconclusive: 25.1 µM [inhibitor, partial curve]"
9,COc1ccc(CNC(=O)Cn2nc(-c3ccc4c(c3)OCCO4)ccc2=O)cc1,"inconclusive: 35.5 µM [inhibitor, single point]"
10,O=C(O)CNC(=O)CC1S/C(=N/N=C2/NC(=O)CS2)NC1=O (centres undefined),inactive
11,CCCN1Cc2cccc(C(=O)Nc3ccc(-c4nc5ccccc5[nH]4)cc3)c2C1=O,"inconclusive: 12.6 µM [inhibitor, partial curve]"
12,CCCc1cc(=O)oc2cc(OCC(=O)N(C)C)c(Cl)cc12,"inconclusive: 6.31 µM [inhibitor, single point]"
13,COCC(C)NCc1ccc(OC)c(Br)c1 (centres undefined),"inconclusive: 28.2 µM [inhibitor, single point]"
14,Cc1ccc(C(=O)N/C(=C\c2ccccc2)C(=O)NCc2cccnc2)cc1,"inconclusive: 31.6 µM [inhibitor, single point]"
15,COc1ccc(OC)c(C2=NOC(C(=O)NCCN3CCOCC3)C2)c1 (centres undefined),"inconclusive: 35.5 µM [inhibitor, single point]"
16,O=C(Cc1n[nH]c(=O)[nH]c1=O)N/N=C/c1c(O)ccc2ccccc12,inactive
17,CCOC(=O)N1CCN(CC(=O)N2c3ccccc3CCc3ccccc32)CC1,"inconclusive: 28.2 µM [inhibitor, single point]"
18,COCC(COCCCNC(=O)Nc1ccc(Br)cc1)OC (centres undefined),inactive
19,O=S(=O)(NCc1csc(-c2cccnc2)n1)c1ccc(Cl)s1,inactive
20,O=C(COC(=O)CNS(=O)(=O)c1ccc(F)c(F)c1F)Nc1ccc(OC(F)F)cc1,inactive
21,CCOc1ccccc1C(=O)Nc1ccsc1C(=O)OC,inactive
22,COc1cccc(-n2nnc3c(=O)n(Cc4cccc(F)c4)cnc32)c1,"inconclusive: 35.5 µM [inhibitor, single point]"
23,COc1ccc(Cc2nnc(NC(=O)Cc3cccs3)s2)cc1,"inconclusive: 8.91 µM [inhibitor, single point]"
